The labels stand for the following.
T1: RBFOX1 RRM RbFoxmut (Fox-RRM*) (Homo sapiens, UniProt Q9NWB1 109-208, R118D;E147R;N151S;E152T)
T1 sequence: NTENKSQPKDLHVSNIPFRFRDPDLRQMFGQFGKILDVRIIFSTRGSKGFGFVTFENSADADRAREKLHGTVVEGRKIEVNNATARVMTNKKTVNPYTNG

B1: AAUAUUU (DNA:RNA)
RNA: GGGAGACCGGAAUUCAGAUUGUCCAAUAUUUUUAAAUCCCGUCGUAGCCACCA
DNA 1: CAATCTGAATTCCGGTCTCCC
DNA 2: TGGTGGCTACGACGGGATT
B2: CCCCUUU (DNA:RNA)
RNA: B1 RNA with A25C, A26C, U27C, A28C
DNA 1: CAATCTGAATTCCGGTCTCCC
DNA 2: TGGTGGCTACGACGGGATT
B3: UGGGCCC (DNA:RNA)
RNA: GGGAGACCGGAAUUCAGAUUGUCCUGGGCCCUUAAAUCCCGUCGUAGCCACCA
DNA 1: CAATCTGAATTCCGGTCTCCC
DNA 2: TGGTGGCTACGACGGGATT
B4: GACCCAG (DNA:RNA)
RNA: B1 RNA with A25G, U27C, A28C, U29C, U30A, U31G
DNA 1: CAATCTGAATTCCGGTCTCCC
DNA 2: TGGTGGCTACGACGGGATT
B5: UUCGUAC (DNA:RNA)
RNA: B3 RNA with G26U, G27C, C29U, C30A
DNA 1: CAATCTGAATTCCGGTCTCCC
DNA 2: TGGTGGCTACGACGGGATT
B6: UUGCUUA (DNA:RNA)
RNA: B1 RNA with A25U, A26U, U27G, A28C, U31A
DNA 1: CAATCTGAATTCCGGTCTCCC
DNA 2: TGGTGGCTACGACGGGATT
B7: GUGUUGA (DNA:RNA)
RNA: B1 RNA with A25G, A26U, U27G, A28U, U30G, U31A
DNA 1: CAATCTGAATTCCGGTCTCCC
DNA 2: TGGTGGCTACGACGGGATT
B8: AUCGAGC (DNA:RNA)
RNA: B3 RNA with U25A, G26U, G27C, C29A, C30G
DNA 1: CAATCTGAATTCCGGTCTCCC
DNA 2: TGGTGGCTACGACGGGATT
B9: GCACGCU (DNA:RNA)
RNA: B1 RNA with A25G, A26C, U27A, A28C, U29G, U30C
DNA 1: CAATCTGAATTCCGGTCTCCC
DNA 2: TGGTGGCTACGACGGGATT
B10: CGUAUAA (DNA:RNA)
RNA: B1 RNA with A25C, A26G, U30A, U31A
DNA 1: CAATCTGAATTCCGGTCTCCC
DNA 2: TGGTGGCTACGACGGGATT
B11: ACCGUGC (DNA:RNA)
RNA: B1 RNA with A26C, U27C, A28G, U30G, U31C
DNA 1: CAATCTGAATTCCGGTCTCCC
DNA 2: TGGTGGCTACGACGGGATT
B12: UACCGCA (DNA:RNA)
RNA: B3 RNA with G26A, G27C, G28C, C29G, C31A
DNA 1: CAATCTGAATTCCGGTCTCCC
DNA 2: TGGTGGCTACGACGGGATT
B13: GCCAGCU (DNA:RNA)
RNA: B1 RNA with A25G, A26C, U27C, U29G, U30C
DNA 1: CAATCTGAATTCCGGTCTCCC
DNA 2: TGGTGGCTACGACGGGATT
B14: AUGUUUU (DNA:RNA)
RNA: B1 RNA with A26U, U27G, A28U
DNA 1: CAATCTGAATTCCGGTCTCCC
DNA 2: TGGTGGCTACGACGGGATT
B15: UCCGGCA (DNA:RNA)
RNA: B3 RNA with G26C, G27C, C29G, C31A
DNA 1: CAATCTGAATTCCGGTCTCCC
DNA 2: TGGTGGCTACGACGGGATT
B16: GAGAAAC (DNA:RNA)
RNA: B1 RNA with A25G, U27G, U29A, U30A, U31C
DNA 1: CAATCTGAATTCCGGTCTCCC
DNA 2: TGGTGGCTACGACGGGATT
B17: CAUGCUG (DNA:RNA)
RNA: B1 RNA with A25C, A28G, U29C, U31G
DNA 1: CAATCTGAATTCCGGTCTCCC
DNA 2: TGGTGGCTACGACGGGATT
B18: CUCCGGA (DNA:RNA)
RNA: GGGAGACCGGAAUUCAGAUUGUCCCUCCGGAUUAAAUCCCGUCGUAGCCACCA
DNA 1: CAATCTGAATTCCGGTCTCCC
DNA 2: TGGTGGCTACGACGGGATT
B19: CGCUCAG (DNA:RNA)
RNA: B18 RNA with U26G, C28U, G29C, G30A, A31G
DNA 1: CAATCTGAATTCCGGTCTCCC
DNA 2: TGGTGGCTACGACGGGATT
B20: GGGCUCG (DNA:RNA)
RNA: B3 RNA with U25G, G28C, C29U, C31G
DNA 1: CAATCTGAATTCCGGTCTCCC
DNA 2: TGGTGGCTACGACGGGATT
B21: CGCCCCC (DNA:RNA)
RNA: B3 RNA with U25C, G27C, G28C
DNA 1: CAATCTGAATTCCGGTCTCCC
DNA 2: TGGTGGCTACGACGGGATT
B22: AUCCCUC (DNA:RNA)
RNA: B18 RNA with C25A, G29C, G30U, A31C
DNA 1: CAATCTGAATTCCGGTCTCCC
DNA 2: TGGTGGCTACGACGGGATT
B23: UAAGCUA (DNA:RNA)
RNA: B3 RNA with G26A, G27A, C30U, C31A
DNA 1: CAATCTGAATTCCGGTCTCCC
DNA 2: TGGTGGCTACGACGGGATT
B24: UGGGUCG (DNA:RNA)
RNA: B3 RNA with C29U, C31G
DNA 1: CAATCTGAATTCCGGTCTCCC
DNA 2: TGGTGGCTACGACGGGATT
B25: AUGACGG (DNA:RNA)
RNA: B1 RNA with A26U, U27G, U29C, U30G, U31G
DNA 1: CAATCTGAATTCCGGTCTCCC
DNA 2: TGGTGGCTACGACGGGATT
B26: AACCUUG (DNA:RNA)
RNA: B1 RNA with U27C, A28C, U31G
DNA 1: CAATCTGAATTCCGGTCTCCC
DNA 2: TGGTGGCTACGACGGGATT
B27: CAAAUUU (DNA:RNA)
RNA: B1 RNA with A25C, U27A
DNA 1: CAATCTGAATTCCGGTCTCCC
DNA 2: TGGTGGCTACGACGGGATT
B28: CGCUAUG (DNA:RNA)
RNA: B18 RNA with U26G, C28U, G29A, G30U, A31G
DNA 1: CAATCTGAATTCCGGTCTCCC
DNA 2: TGGTGGCTACGACGGGATT
B29: GCAUUUC (DNA:RNA)
RNA: B1 RNA with A25G, A26C, U27A, A28U, U31C
DNA 1: CAATCTGAATTCCGGTCTCCC
DNA 2: TGGTGGCTACGACGGGATT
B30: GGUACUU (DNA:RNA)
RNA: B1 RNA with A25G, A26G, U29C
DNA 1: CAATCTGAATTCCGGTCTCCC
DNA 2: TGGTGGCTACGACGGGATT
B31: GUCUAAC (DNA:RNA)
RNA: B18 RNA with C25G, C28U, G29A, G30A, A31C
DNA 1: CAATCTGAATTCCGGTCTCCC
DNA 2: TGGTGGCTACGACGGGATT

Positions count from the first letter of the chain named. This is one part of the list.

In the assay the target is T1, RBFOX1 RRM RbFoxmut (Fox-RRM*). Briefly: EMSA; HiTS-Eq, 1 nM pool, 10 min; buffer printed only for the single-RNA assays: 10 mM Tris pH 7.5, 150 mM NaCl, 3.4 mM EDTA, 0.001% NP-40, 30 C. The conditions noted are these: tags: His6 N-terminal (pET28a); label: 5' 32P. A digest of the protocol: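 A pool of RNA with 7 randomized nucleotides, 5′-radiolabelled and with DNA-annealed flanks, was equilibrated at 1 nM for 10 min in 50 µL with purified RbFox RRM, wild type or mutant, across increasing protein concentrations. Free RNA was separated by 8% native PAGE, excised, reverse-transcribed, barcoded by PCR and sequenced. Relative association constants were obtained from read-count changes of each RNA species versus the control reaction and normalised to the cognate motif.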
In the case of B1, the binding signal was 0.117 KA relative to UGCAUGU.

With B2, the binding signal is 0.0777 KA relative to UGCAUGU.

As to B3, the binding signal is 0.0962 KA relative to UGCAUGU.

Take B4: the binding signal was 0.0716 KA relative to UGCAUGU.

On to B5, for which the binding signal was 0.134 KA relative to UGCAUGU.

Turning to B6, the binding signal is 0.15 KA relative to UGCAUGU.

For B7, the binding signal is 0.101 KA relative to UGCAUGU.

Turning to B8, the binding signal is 0.108 KA relative to UGCAUGU.

As to B9, the binding signal was 0.128 KA relative to UGCAUGU.

B10: the binding signal was 0.0769 KA relative to UGCAUGU.

Consider B11, for which the binding signal is 0.129 KA relative to UGCAUGU.

Regarding B12, the binding signal was 0.132 KA relative to UGCAUGU.

Turning to B13, the binding signal is 0.0901 KA relative to UGCAUGU.

For B14, the binding signal is 0.134 KA relative to UGCAUGU.

As for B15, the binding signal was 0.0909 KA relative to UGCAUGU.

B16: the binding signal is 0.0662 KA relative to UGCAUGU.

With B17, the binding signal is 0.124 KA relative to UGCAUGU.

Take B18: the binding signal was 0.0672 KA relative to UGCAUGU.

On to B19, for which the binding signal was 0.105 KA relative to UGCAUGU.

Consider B20, for which the binding signal was 0.256 KA relative to UGCAUGU.

Regarding B21, the binding signal was 0.0547 KA relative to UGCAUGU.

Regarding B22, the binding signal was 0.0705 KA relative to UGCAUGU.

As for B23, the binding signal is 0.0783 KA relative to UGCAUGU.

Turning to B24, the binding signal was 0.375 KA relative to UGCAUGU.

As to B25, the binding signal was 0.0993 KA relative to UGCAUGU.

For B26, the binding signal was 0.0938 KA relative to UGCAUGU.

As for B27, the binding signal was 0.0689 KA relative to UGCAUGU.

Take B28: the binding signal was 0.184 KA relative to UGCAUGU.

For B29, the binding signal was 0.0777 KA relative to UGCAUGU.

Take B30: the binding signal is 0.0675 KA relative to UGCAUGU.

As for B31, the binding signal is 0.0773 KA relative to UGCAUGU.

(Values after PMC9911399, “Two distinct binding modes provide the RNA-binding protein RbFox with extraordinary sequence specificity”.)
